{"source": "ChEMBL document CHEMBL4888484", "about": "“Replenishing the malaria drug discovery pipeline: Screening and hit evaluation of the MMV Hit Generation Library 1 (HGL1) against asexual blood stage Plasmodium falciparum ,using a nano luciferase reporter read-out” (2022)", "note": "In all, about 150,000 compounds went through this assay and about 540 (0.36%) showed an effect of 50% or more. Some of the results follow."}
{"test_system": "Plasmodium falciparum", "experiment": "Primary screen in NF54 nanoGlo assay, in single point, at 2uM, 72h; a lower Z score goes with more inhibition", "format": "functional, Erythrocyte", "conditions": "timepoint 72 hour", "units": {"% Inhibition": "%"}}
{"smiles": "CCCn1nccc1C1CCN(C(=O)CNS(=O)(=O)C2CC2)CC1", "% Inhibition": -13, "Z score": 2.39}
{"smiles": "CC(C)c1ccc(OCC2c3ccsc3CCN2C(=O)CN(CC2CCCO2)C(=O)c2ccc(F)cc2)cc1", "note": "(stereo not given)", "% Inhibition": -7, "Z score": 1.05}
{"smiles": "CCC(=O)N1CCC[C@@](NCc2ccc(Cl)cc2)(c2nnnn2C2CCCC2)C1", "% Inhibition": 7, "Z score": -0.92}
{"smiles": "COc1ccc(Oc2c(CN(CC(C)C)C(=O)c3ccccc3Cl)c(-c3ccccc3)nn2C)cc1", "% Inhibition": -12, "Z score": 1.62}
{"smiles": "CC(=O)N1CCCc2cc(C[C@H]3CCCO3)ccc21", "% Inhibition": -10, "Z score": 2.09}
{"smiles": "O=C1CN(Cc2ncnn2CCF)[C@H](c2ccccc2)CN1", "% Inhibition": 5, "Z score": -0.93}
{"smiles": "COc1ccc(-c2cnc3ncnn3c2)c(-n2cccn2)c1", "% Inhibition": -8, "Z score": 1.18}
{"smiles": "COc1cc(N2CCO[C@@H](C)C2)ncn1", "% Inhibition": -3, "Z score": 0.28}
{"smiles": "Cc1cc(C(=O)N(CCC(=O)NCCCN2CCOCC2)CCC(C)C)c(C)o1", "% Inhibition": -19, "Z score": 2.31}
{"smiles": "CCc1ncoc1C(=O)Nc1cnc(CC2CC2)nc1", "% Inhibition": 4, "Z score": -0.72}
{"smiles": "Cc1nc(C)c(CCNC(=O)NCC[C@H]2CCCO2)s1", "% Inhibition": 8, "Z score": -1}
{"smiles": "O=C(N[C@H]1CCN(Cc2cc3ccccc3o2)C[C@@H]1O)c1cnccn1", "% Inhibition": 4, "Z score": -0.37}
{"smiles": "CN(c1ccccc1F)S(=O)(=O)c1cccc(C(=O)NC2CC2)c1", "% Inhibition": -10, "Z score": 1.47}
{"smiles": "O=C(NCc1nnc2cc(C(F)(F)F)ccn12)c1cc[nH]c(=O)c1", "% Inhibition": 19, "Z score": -2.37}
{"smiles": "O=C(N[C@H]1CCc2ncnn2C1)c1cncc(-c2ccc(Cl)cc2)c1", "% Inhibition": -1, "Z score": 0.09}
{"smiles": "CNc1nc(C)cc(N[C@H]2CC(C)(C)Cc3nc(C(C)(C)C)ncc32)n1", "% Inhibition": 3, "Z score": -0.44}
{"smiles": "O=C(CCc1ccsc1)NC1CCCC1", "% Inhibition": -9, "Z score": 0.82}
{"smiles": "CCOCCCC(=O)NCC1CCCC1NC(=O)CCCOCC", "note": "(stereo not given)", "% Inhibition": -12, "Z score": 1.5}
{"smiles": "CC[C@@H](C(=O)OC(C)(C)C)N1CCN(S(=O)(=O)CC)CC1", "% Inhibition": -10, "Z score": 1.47}
{"smiles": "c1ccc(-c2noc(CN3CC[C@H](c4ccnc(-c5ccncc5)c4)C3)n2)cc1", "% Inhibition": -19, "Z score": 2.43}
{"smiles": "CC(C(=O)N1C(C)COCC1C)c1cccs1", "note": "(stereo not given)", "% Inhibition": -17, "Z score": 3.16}
{"smiles": "CCOCCOc1nc(-c2ccc(C(F)(F)F)cc2)n(-c2cccc(NC(=O)c3ccc(F)c(C)c3)c2)n1", "% Inhibition": -17, "Z score": 1.89}
{"smiles": "COc1nc(O)cc(C(=O)N2CCN(c3cccc(C(F)(F)F)c3)CC2)n1", "% Inhibition": -9, "Z score": 1.68}
{"smiles": "NC(=O)CN1CCc2onc(-c3ccc4c(c3)OCO4)c2C1", "% Inhibition": -11, "Z score": 1.23}
{"smiles": "Cn1nc2n(c1=O)CCN(C(=O)Cc1ccccc1F)CC2", "% Inhibition": -4, "Z score": 0.52}
{"smiles": "CC(C)(C(=O)O)N1CCN(c2cc(N3CCCC3)ncn2)CC1", "% Inhibition": -8, "Z score": 1.28}
{"smiles": "CCOc1ncccc1CNC(=O)c1cc(C)n(-c2ccc3c(c2)OCCO3)c1C", "% Inhibition": 6, "Z score": -1.09}
{"smiles": "CCNC(=O)C1CN(c2nc(C3CC3)nc3c2CCC3)C1", "% Inhibition": -3, "Z score": 0.37}
{"smiles": "C[C@@H](c1ncc(C(C)(C)C)o1)N1CCN(c2ccc(=O)[nH]n2)CC1", "% Inhibition": -16, "Z score": 1.8}
{"smiles": "CN(CCNC(=O)C(F)(F)[C@H](O)c1ccccc1)C1CC1", "% Inhibition": -2, "Z score": 0.24}
{"smiles": "NC(=O)[C@@H]1CC[C@H](C(=O)N2CCCCC23CCOC3)C1", "note": "(stereo not given in full)", "% Inhibition": -15, "Z score": 1.9}
{"smiles": "Cc1nc(CC(=O)NCc2sccc2C)cs1", "% Inhibition": 3, "Z score": -0.57}
{"smiles": "CCc1cc(O)nc(CN(C)Cc2cccnc2)n1", "% Inhibition": 0, "Z score": 0}
{"smiles": "CC(C)(C)OC(=O)NC1CCC2(CC1)CNCCO2", "note": "(stereo not given)", "% Inhibition": -7, "Z score": 0.87}
{"smiles": "CC(C)c1ccc(-c2nc(NCCN3CCCC3)nc3nn(-c4ccc(F)cc4)c(N)c23)cc1", "% Inhibition": -22, "Z score": 2.13}
{"smiles": "Cc1nn(C)c(C)c1CCC(=O)N1CCC(C)CC1c1ccco1", "note": "(stereo not given)", "% Inhibition": -10, "Z score": 1.36}
{"smiles": "CCc1nc(C)c(C(=O)NCc2cccnc2Oc2ccc(F)cc2F)o1", "% Inhibition": -2, "Z score": 0.32}
{"smiles": "CC(C)c1cc(C(=O)N2CC3CCC2C3)on1", "note": "(stereo not given)", "% Inhibition": 31, "Z score": -3.45}
{"smiles": "O=C(Cc1ccsc1)N(Cc1ccccc1)[C@H]1CCS(=O)(=O)C1", "% Inhibition": -7, "Z score": 0.66}
{"smiles": "CCc1ccc(O)c(NC(=O)C(C)(C)C#N)c1", "% Inhibition": 13, "Z score": -1.79}
{"smiles": "CC1OCCC1C(=O)Nc1nc(-c2cnn(C)c2)ns1", "note": "(stereo not given)", "% Inhibition": -3, "Z score": 0.53}
{"smiles": "CCn1nncc1C(=O)N[C@H]1COc2c1ccc(Cl)c2Cl", "% Inhibition": -16, "Z score": 2.16}
{"smiles": "O=C(CCOc1ccccc1)N[C@H]1CC(=O)N(Cc2cccc(F)c2)C1", "% Inhibition": -7, "Z score": 0.92}
{"smiles": "Cc1cnccc1NCCNCc1ccnc(C(C)C)n1", "% Inhibition": -15, "Z score": 1.39}
{"smiles": "COc1ccc(C(=O)Cc2ccccn2)cc1", "% Inhibition": -1, "Z score": 0.11}
{"smiles": "O=C(c1cn(C[C@H]2CCCO2)nn1)N(CCO)Cc1cccs1", "% Inhibition": -1, "Z score": 0.09}
{"smiles": "CCCCn1c(N)c(N(CC)C(=O)[C@H]2CC(=O)N(c3cccc(C(F)(F)F)c3)C2)c(=O)[nH]c1=O", "% Inhibition": -1, "Z score": 0.09}
{"smiles": "Cc1ccc(C(=O)Nc2onc(C)c2-c2ccccc2)cc1NC(=O)[C@@H]1CCCO1", "% Inhibition": -13, "Z score": 1.93}
{"smiles": "CC(C)NC(=O)N1CCC[C@H]1C(=O)NC1CCCOc2cc(F)ccc21", "note": "(stereo not given in full)", "% Inhibition": 0, "Z score": 0.09}
{"smiles": "Cc1ccc2c(C(=O)NC3CC3)cc(NC(=O)C(C)C)cc2n1", "% Inhibition": -19, "Z score": 2.7}
{"smiles": "c1cc(-c2csc(N3CCOCC3)n2)cc(-n2cnnn2)c1", "% Inhibition": -10, "Z score": 1.95}
{"smiles": "Cn1nc2cc(Br)ccc2c1C(=O)N1C2C=CCC1CC2", "note": "(stereo not given)", "% Inhibition": 2, "Z score": -0.28}
{"smiles": "CCc1cn[nH]c1[C@H]1CCCN(C(=O)c2c[nH]c(=O)[nH]2)C1", "% Inhibition": -6, "Z score": 0.8}
{"smiles": "O=C(CCn1cnnn1)Nc1ccccc1C(=O)n1cnc2ccccc21", "% Inhibition": -9, "Z score": 1.73}
{"smiles": "COCc1nocc1C(=O)N(Cc1ccccc1Br)CC(C)C", "% Inhibition": -8, "Z score": 1.27}
